# Measured values reported in the supplement of paper PMC10037445.
# In all, about 2,900 compounds were measured (“IRF Lucia reporter activity, fold change vs agonist alone”: median about 0.9, highest 2% from about 2.8 on). The list shows a part of the results.
# Assays:
# RAW-Dual [1] = assay: IRF Lucia reporter activity, fold change vs agonist alone; cytotoxicity flag (confluency mask): not cytotoxic; higher = enhanced IRF activity
# Procedure, shortened: (§1)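 Library stock was pin-tooled at 50 nL into 384-well plates of RAW-Dual macrophages (50,000 cells/well, DMEM), followed 1 h later by a PRR agonist, and the cells were kept at 37 °C, 5% CO2. Supernatant collected after 20 hours was read for IRF by QuantiLuc luminescence and for NF-κB by QuantiBlue absorbance at 620 nm. Reporter activity is fold change over agonist-alone wells, and a well counted as cytotoxic when its IncuCyte confluency was below 70% of agonist controls in both mask sets.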
# RAW-Dual [2] = assay: IRF Lucia reporter activity, fold change vs agonist alone; higher = enhanced IRF activity; settings: library stock concentration (final ~1000-fold dilution): 10 mM; cytotoxicity flag (confluency mask): not cytotoxic; agonist: MPLA (TLR4) […]
# Procedure, shortened: as §1
# RAW-Dual [3] = assay: IRF Lucia reporter activity, fold change vs agonist alone; cytotoxicity flag (confluency mask): cytotoxic (confluency <70% of control); higher = enhanced IRF activity
# Procedure, shortened: as §1
# [4] = agonist: 3'3'-cGAMP (STING) 10 ug/mL
structure (smiles),measurement,setting,value
COc1nccc(-c2c(-c3ccc(F)cc3)ncn2C2CCC(O)CC2)n1 (stereo unspecified) (library stock concentration (final ~1000-fold dilution): 10 mM),IRF Lucia reporter activity,RAW-Dual [1]; [4],0.777
same,IRF Lucia reporter activity,RAW-Dual [1]; agonist: LPS (TLR4) 0.1 ug/mL,0.775
CCCc1cc(C)[nH]c(=O)c1CNC(=O)c1cc(-c2ccc(N3CCN(C(C)C)CC3)nc2)cc2c1cnn2C(C)C (library stock concentration (final ~1000-fold dilution): 10 mM),IRF Lucia reporter activity,RAW-Dual [1]; [4],0.971
same,IRF Lucia reporter activity,RAW-Dual [1]; agonist: LPS (TLR4) 0.1 ug/mL,0.971
CCCc1cc(C)[nH]c(=O)c1CNC(=O)c1cc(-c2ccc(N3CCN(C(C)C)CC3)nc2)cc2c1cnn2C(C)C,IRF Lucia reporter activity,RAW-Dual [2],1.25
CCCC(NC1CCc2cc(F)cc(F)c2C1)C(=O)Nc1cn(C(C)(C)CNCC(C)(C)C)cn1 (stereo unspecified) (library stock concentration (final ~1000-fold dilution): 10 mM),IRF Lucia reporter activity,RAW-Dual [1]; [4],0.398
same,IRF Lucia reporter activity,RAW-Dual [1]; agonist: LPS (TLR4) 0.1 ug/mL,2.4
CCC(C)CCCCC(=O)NC(CCN)C(=O)NC(C(=O)NC(CCN)C(=O)NC1CCNC(=O)C(C(C)O)NC(=O)C(CCN)NC(=O)C(CCN)NC(=O)C(CC(C)C)NC(=O)C(Cc2ccccc2)NC(=O)C(CCN)NC1=O)C(C)O (stereo unspecified) (library stock concentration (final ~1000-fold dilution): 15 uM),IRF Lucia reporter activity,RAW-Dual [1]; [4],0.927
same,IRF Lucia reporter activity,RAW-Dual [1]; agonist: LPS (TLR4) 0.1 ug/mL,0.03
NC(=O)c1ccc(N(C(N)=O)c2c(F)cccc2F)nc1-c1ccc(F)cc1F,IRF Lucia reporter activity,RAW-Dual [2],1.13
NC(=O)c1ccc(N(C(N)=O)c2c(F)cccc2F)nc1-c1ccc(F)cc1F (library stock concentration (final ~1000-fold dilution): 10 mM),IRF Lucia reporter activity,RAW-Dual [1]; [4],1.02
same,IRF Lucia reporter activity,RAW-Dual [1]; agonist: LPS (TLR4) 0.1 ug/mL,0.768
COC(=O)C1=C(C)NC(C)=C(C(=O)OCCN(C)Cc2ccccc2)C1c1cccc([N+](=O)[O-])c1.Cl (stereo unspecified) (library stock concentration (final ~1000-fold dilution): 10 mM),IRF Lucia reporter activity,RAW-Dual [1]; [4],0.3
same,IRF Lucia reporter activity,RAW-Dual [1]; agonist: LPS (TLR4) 0.1 ug/mL,1.4
COC(=O)C1=C(C)NC(C)=C(C(=O)OCCN(C)Cc2ccccc2)C1c1cccc([N+](=O)[O-])c1.Cl (stereo unspecified),IRF Lucia reporter activity,RAW-Dual [2],1.12
Nc1c(CC(=O)O)cccc1C(=O)c1ccccc1,IRF Lucia reporter activity,RAW-Dual [2],1.17
Nc1c(CC(=O)O)cccc1C(=O)c1ccccc1 (library stock concentration (final ~1000-fold dilution): 10 mM),IRF Lucia reporter activity,RAW-Dual [1]; [4],1.16
same,IRF Lucia reporter activity,RAW-Dual [1]; agonist: LPS (TLR4) 0.1 ug/mL,1.26
CC(C)(C)C(=O)Nc1ccc2c(c1)C(=O)C(=O)c1ccccc1-2 (library stock concentration (final ~1000-fold dilution): 10 mM),IRF Lucia reporter activity,RAW-Dual [1]; [4],0.0753
same,IRF Lucia reporter activity,RAW-Dual [1]; agonist: LPS (TLR4) 0.1 ug/mL,0.0184
CC(C)(C)C(=O)Nc1ccc2c(c1)C(=O)C(=O)c1ccccc1-2,IRF Lucia reporter activity,RAW-Dual [2],0.0245
Nc1nc(NC2CC2)c2ncn(C3C=CC(CO)C3)c2n1 (stereo unspecified),IRF Lucia reporter activity,RAW-Dual [2],1.06
Nc1nc(NC2CC2)c2ncn(C3C=CC(CO)C3)c2n1 (stereo unspecified) (library stock concentration (final ~1000-fold dilution): 10 mM),IRF Lucia reporter activity,RAW-Dual [1]; [4],0.94
same,IRF Lucia reporter activity,RAW-Dual [1]; agonist: LPS (TLR4) 0.1 ug/mL,1.16
COc1cccc(C=Nc2cccc(C(=O)O)c2C)c1O (library stock concentration (final ~1000-fold dilution): 1 mM),IRF Lucia reporter activity,RAW-Dual [1]; [4],1.13
same,IRF Lucia reporter activity,RAW-Dual [1]; agonist: LPS (TLR4) 0.1 ug/mL,0.845
N=C1NC(=O)/C(=C/c2ccc(O)cc2)S1 (library stock concentration (final ~1000-fold dilution): 10 mM),IRF Lucia reporter activity,RAW-Dual [1]; [4],0.687
same,IRF Lucia reporter activity,RAW-Dual [1]; agonist: LPS (TLR4) 0.1 ug/mL,0.843
CN(C)C(=O)Nc1cccc(-c2ccc(N(C)C)cc2)c1 (library stock concentration (final ~1000-fold dilution): 10 mM),IRF Lucia reporter activity,RAW-Dual [1]; [4],0.907
same,IRF Lucia reporter activity,RAW-Dual [1]; agonist: LPS (TLR4) 0.1 ug/mL,0.77
CN(C)C(=O)Nc1cccc(-c2ccc(N(C)C)cc2)c1,IRF Lucia reporter activity,RAW-Dual [2],1.08
O=C(c1ccc(Oc2ccccc2)cc1Cl)c1c[nH]c2ncnc(NC3CCC(CO)OC3)c12 (stereo unspecified) (library stock concentration (final ~1000-fold dilution): 10 mM),IRF Lucia reporter activity,RAW-Dual [3]; [4],0.23
same,IRF Lucia reporter activity,RAW-Dual [3]; agonist: LPS (TLR4) 0.1 ug/mL,0.593
C=CC(=O)N1CCC(CNc2ncnc(N)c2-c2ccc(Oc3ccccc3)cc2)CC1 (library stock concentration (final ~1000-fold dilution): 10 mM),IRF Lucia reporter activity,RAW-Dual [1]; [4],0.787
same,IRF Lucia reporter activity,RAW-Dual [1]; agonist: LPS (TLR4) 0.1 ug/mL,0.55
C=CC(C)(/C=C/c1ccc(O)cc1)CCC=C(C)C (stereo unspecified) (library stock concentration (final ~1000-fold dilution): 10 mM),IRF Lucia reporter activity,RAW-Dual [1]; [4],0.407
same,IRF Lucia reporter activity,RAW-Dual [1]; agonist: LPS (TLR4) 0.1 ug/mL,1.13
C=CC(C)(/C=C/c1ccc(O)cc1)CCC=C(C)C (stereo unspecified),IRF Lucia reporter activity,RAW-Dual [2],1.13
N#Cc1ccc(C(c2ccc(C#N)cc2)n2cncn2)cc1 (library stock concentration (final ~1000-fold dilution): 10 mM),IRF Lucia reporter activity,RAW-Dual [1]; [4],0.973
same,IRF Lucia reporter activity,RAW-Dual [1]; agonist: LPS (TLR4) 0.1 ug/mL,0.931
N#Cc1ccc(C(c2ccc(C#N)cc2)n2cncn2)cc1,IRF Lucia reporter activity,RAW-Dual [2],1.02
CCCC1CC(C(=O)NC(C(C)Cl)C2OC(SC)C(O)C(O)C2O)N(C)C1 (stereo unspecified),IRF Lucia reporter activity,RAW-Dual [2],1.11
CCCC1CC(C(=O)NC(C(C)Cl)C2OC(SC)C(O)C(O)C2O)N(C)C1 (stereo unspecified) (library stock concentration (final ~1000-fold dilution): 10 mM),IRF Lucia reporter activity,RAW-Dual [1]; [4],1.07
same,IRF Lucia reporter activity,RAW-Dual [1]; agonist: LPS (TLR4) 0.1 ug/mL,0.931
NC(=O)CCC(N)C(=O)O (library stock concentration (final ~1000-fold dilution): L-Glutamine),IRF Lucia reporter activity,RAW-Dual [1]; [4],1.51
same,IRF Lucia reporter activity,RAW-Dual [1]; agonist: LPS (TLR4) 0.1 ug/mL,0.923
